The list shows a part of the results. The list includes weakly bound sequences.

This test has as its target MaxL homodimer (UniProt P61244). As to the kind of experiment: universal protein-binding microarray (PBM). The following applies: PBS-based mixture, 10 nM His-tagged protein dimer, 2% milk, 200 ng/uL BSA, 50 ng/uL salmon testes DNA, 0.02% TX-100; detection with Alexa 488 anti-His …; high values mean tight binding; most listed sequences are background and not binding sites; double strand, one strand shown.
Sequence of UniProt P61244 (P61244 whole entry): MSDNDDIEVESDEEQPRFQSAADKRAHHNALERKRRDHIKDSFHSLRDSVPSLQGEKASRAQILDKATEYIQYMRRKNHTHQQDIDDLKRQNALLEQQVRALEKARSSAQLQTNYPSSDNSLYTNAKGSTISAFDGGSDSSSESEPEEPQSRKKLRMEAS
As for AAGCCTCG, the binding signal (normalized occupancy) stood at 0.0772.
Next, GGTCCTAA: 0.0732; CCTGCCCG: 0.0714.
With AAAGGCGA, the binding signal (normalized occupancy) amounted to 0.0712.
Consider TAGGAGCA, for which the binding signal (normalized occupancy) worked out at 0.0779.
As for CACGCCGA, the binding signal (normalized occupancy) came to 0.0911.
As for TAAGGAGA, the binding signal (normalized occupancy) is 0.0751.
As for ACGTCCGA, the binding signal (normalized occupancy) is 0.0738.
TACTCCTA: the binding signal (normalized occupancy) stood at 0.0748.
Next, ATGTAGCA: 0.079.
Next, CGCAACCG: 0.068; AAACCGGC: 0.0689.
For the sequence AGCATGGC, the binding signal (normalized occupancy) stood at 0.102.
With ACCTGCGT the figure was 0.0757; with CTAAAGCA, 0.0753; with CCCCCAGC, 0.0752.
TAACAGTA: the binding signal (normalized occupancy) was found to be 0.0801.
With CAGCGTCA the figure was 0.0719; with GGGATCAA, 0.0808.
With ATCCTGAC the figure was 0.0753; with GTCACTAA, 0.0757; with AAACGCAG, 0.0728.
For GCTTTCTA, the binding signal (normalized occupancy) is 0.0752.
For AAAGATGC, the binding signal (normalized occupancy) worked out at 0.0755.
Consider AAGGCTAT, for which the binding signal (normalized occupancy) amounted to 0.0752.
Consider ACGCGGCC, for which the binding signal (normalized occupancy) came to 0.0827.
With AAGATTAT the figure was 0.0762.
In the case of CGATTTCC, the binding signal (normalized occupancy) stood at 0.0663.
Next, CTGCAGCA: 0.0755.
In the case of AACTACAG, the binding signal (normalized occupancy) came to 0.0771.
With GCAGGAGA the figure was 0.0739.
Next, GAAGATAA: 0.0733; GACCGACA: 0.075.
Next, AATCCTTC: 0.0778.
As for ATCTATGA, the binding signal (normalized occupancy) was determined as 0.0846.
With ATAATAGG the figure was 0.0786.
In the case of CACTAATA, the binding signal (normalized occupancy) is 0.0773.
For the sequence ATGCAAAA, the binding signal (normalized occupancy) worked out at 0.0753.
As for GCTCCCCA, the binding signal (normalized occupancy) was 0.0833.
Next, ACTTCTGG: 0.0758; CGTCAGGC: 0.0716.
Next, CCTGGTTC: 0.0726; ACCACGTC: 0.0945; GCGCCCAA: 0.0712.
With GGGGAAAC, the binding signal (normalized occupancy) came to 0.073.
Next, CAACGCTC: 0.0772.
With AGGGTCAG, the binding signal (normalized occupancy) is 0.0706.
In the case of CCGACAAA, the binding signal (normalized occupancy) was found to be 0.0718.
CTACGACA: the binding signal (normalized occupancy) was 0.0772.
Next, CAGTAGCC: 0.0674.
Take GTATGCGA: the binding signal (normalized occupancy) amounted to 0.0727.
Take AAACGGTT: the binding signal (normalized occupancy) was found to be 0.073.
Next, GAAGCCAC: 0.0721; CTGGGTTC: 0.0693.
Turning to GACAGCAC, the binding signal (normalized occupancy) was 0.0804.
As to CTAAATCA, the binding signal (normalized occupancy) came out at 0.0726.
Next, GTTATAGA: 0.0851.
GAGCGCAA: the binding signal (normalized occupancy) was found to be 0.0672.
With CTGCTGGC the figure was 0.0733.
On to CCCGACCC, for which the binding signal (normalized occupancy) came out at 0.0781.
Regarding CAAAGTGG, the binding signal (normalized occupancy) is 0.0719.
Next, CAGAATAC: 0.0753; CTTTTGTA: 0.0739.
Next, ACCTAACC: 0.0792; ATTTTGAG: 0.0789.
For the sequence GAAAACCC, the binding signal (normalized occupancy) came out at 0.0762.
With ACAATAGG the figure was 0.0767; with CTCGAAAA, 0.0738.
For the sequence TCACCCGA, the binding signal (normalized occupancy) was 0.0767.
With CAGTGATA the figure was 0.0738; with CCAAGTGA, 0.0743; with ATCCACGA, 0.0905.
With GTTAGTAA the figure was 0.0769; with GCCAGTAA, 0.0754; with GACTCTGC, 0.0711.
Regarding CGCTAGGC, the binding signal (normalized occupancy) was found to be 0.0642.
Consider GAGTAAAA, for which the binding signal (normalized occupancy) worked out at 0.0732.
For the sequence AGCGAGTG, the binding signal (normalized occupancy) was 0.0717.
Next, TAATTCGA: 0.0739; AAGTTCTC: 0.0677.
Take CGTCTCGA: the binding signal (normalized occupancy) was found to be 0.071.
Next, AAAACGAT: 0.0742.
As for ATTAGCTG, the binding signal (normalized occupancy) stood at 0.0693.
As to ACCTACCG, the binding signal (normalized occupancy) stood at 0.0732.
With CTGGCCAA the figure was 0.0728; with CATTAAAC, 0.0799.
For the sequence GAAGTAAC, the binding signal (normalized occupancy) was 0.0709.
As for ATACAGCC, the binding signal (normalized occupancy) was determined as 0.0817.
For GGCGTAAA, the binding signal (normalized occupancy) came to 0.0747.
Next, AGGCCGGA: 0.0695; ACGGATAC: 0.0815.
Next, GCATGCAA: 0.0988; TAAATGGA: 0.0741; CCGAACTA: 0.0689.
Take AGGGATAT: the binding signal (normalized occupancy) was 0.0823.
With ACAGAAGT the figure was 0.0784; with AGAATCGG, 0.068.
Consider CTAGGACA, for which the binding signal (normalized occupancy) was found to be 0.0729.
As for ACCAAATG, the binding signal (normalized occupancy) came to 0.0801.
GACCAGTA: the binding signal (normalized occupancy) came to 0.0734.
With TCACCGGA the figure was 0.0724; with CCACGACA, 0.0811; with ATGCAGAA, 0.0766.
Take GCACTAGA: the binding signal (normalized occupancy) stood at 0.0727.
For the sequence GTTCTAAA, the binding signal (normalized occupancy) stood at 0.0731.
With CTGTATTC the figure was 0.0743; with ACCCTGAT, 0.0778.
With CAGCCCTC the figure was 0.0697; with CTAGGAAA, 0.0739.
CACGGAGC: the binding signal (normalized occupancy) was 0.0724.
For TAGTGCAA, the binding signal (normalized occupancy) was determined as 0.0748.
With TAGATGGA the figure was 0.081.
Next, AAGTTAGG: 0.0725.
Next, GAGTGGAA: 0.0794.
In the case of GACCGATA, the binding signal (normalized occupancy) was 0.075.
With AGTATCGG the figure was 0.0757.
With ACCTGCGG the figure was 0.0729; with ATAGTTAA, 0.0783; with ACATCGAG, 0.0795.
Consider TCTGGCAA, for which the binding signal (normalized occupancy) was 0.0694.
As for ACTAGATC, the binding signal (normalized occupancy) was found to be 0.08.
As to AAGGAAAC, the binding signal (normalized occupancy) worked out at 0.0656.
As to GCGAGCTA, the binding signal (normalized occupancy) was determined as 0.071.
With CATGATGA the figure was 0.0888; with ACAAGCAA, 0.0715.
ACTGAATA: the binding signal (normalized occupancy) came to 0.0769.
Next, CAAGAGGG: 0.0744; TAACATTA: 0.0826.
Next, CGGCCTGA: 0.0749.
With AGTAACAA the figure was 0.0728; with AGCCGTTA, 0.0719; with GACAGTAA, 0.0794.
For the sequence AGTCTGAG, the binding signal (normalized occupancy) amounted to 0.0681.
Consider ACTCTAAC, for which the binding signal (normalized occupancy) came out at 0.0762.
Next, TACTTATA: 0.0836; ACTGCACG: 0.0892; AGGCCCAC: 0.0777.
Next, CGGGGAGC: 0.0665; TATATTGA: 0.0845.
Next, GAAACCGA: 0.0713; AGCCATGA: 0.0819; GTGGACAC: 0.0794.
Consider GAGGCTAC, for which the binding signal (normalized occupancy) worked out at 0.0682.
Consider CCCATTTC, for which the binding signal (normalized occupancy) turned out to be 0.0758.
With ACATTAGT the figure was 0.0867; with GATCCAGA, 0.0723.
Next, CTCTACCA: 0.0784.
As to CTCCAAAC, the binding signal (normalized occupancy) came out at 0.0751.
Regarding CTTGTCTA, the binding signal (normalized occupancy) came to 0.0753.
Take GGTCAACA: the binding signal (normalized occupancy) was found to be 0.0813.
Next, CTTACCTA: 0.0755; CTGCCGAA: 0.069.
For the sequence GCGTAATA, the binding signal (normalized occupancy) was found to be 0.0783.
With GATTACCA the figure was 0.0702; with CCAATTGG, 0.0757; with CGCCACCA, 0.0773.
On to CAGGTCGA, for which the binding signal (normalized occupancy) is 0.0645.
Regarding CTGACAAC, the binding signal (normalized occupancy) was 0.0725.
Consider GTTCTAGA, for which the binding signal (normalized occupancy) stood at 0.0745.
Next, AATTTTTG: 0.0733; AAGATGCG: 0.0781; CACTTACA: 0.0837.
Next, AATGGGTG: 0.0771.
With ACTCCAGT the figure was 0.0743.
On to GCCATGCA, for which the binding signal (normalized occupancy) came to 0.0904.
Next, CCTAGAGA: 0.0732; ATGCCCCG: 0.0818; GGTATTCA: 0.0802.
Next, ACCACTGA: 0.0725; GAAACGAC: 0.0712; CAACGAAG: 0.0687.
With CGGCCTAA the figure was 0.0684.

(Values after publication PMC4242493.)
